Experimental data: PubChem BioAssay AID1347073 (National Center for Advancing Translational Sciences (NCATS), 2019)
In all, about 45,000 compounds went through this assay and about 200 (0.44%) were called active. Not shown: some 7% with an inconclusive outcome. Calls come from the whole dose curve; as a rule, active = well fitted activation curve with a large enough effect; inconclusive = small, poorly fitted or top-dose-only effect; inactive = no such curve, though single readings can be large or run the other way. The list shows a part of the results.

Assay: qHTS of TDP-43 Inhibitors: NCGC Sytravon Library Screen; note: 0% is about no effect; nearly all actives have a fitted effect of over 55% in size
Details: yeast TDP-43 toxicity rescue, BacTiter-Glo growth, 24 h; series mostly up to 46.1 µM; growth rescue (activation): at the top concentration
Procedure, shortened: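 TDP-43-expressing yeast, pregrown in raffinose, seeded at OD600 0.02 in galactose medium with compound for 24 hr at 30 deg C. Growth read by BacTiter-Glo luminescence, so rescue of toxicity appears as activation.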

| SMILES | growth rescue (activation) |
| --- | --- |
| O=C(NNC(=O)c1n[nH]c2ccccc12)c1ccccc1 | inactive: -0.786% |
| O=C(Nc1ccc(S(=O)(=O)Nc2ccccn2)cc1)c1ccc(Cl)cc1Cl | inactive: 8.62% |
| CN1CCN(C(=O)c2ccc(COc3cc(Cl)ccc3Cl)o2)CC1 | inactive: -26.8% |
| O=C(CSc1nc(-c2ccccc2)cc(C(F)(F)F)n1)NCc1cccs1 | inactive: 24.9% |
| O=C(CN1C(=O)c2ccccc2C1=O)NCc1ccc(C(=O)O)cc1 | inactive: 9.58% |
| COCCn1c(SCC(=O)N2CCCC2)nnc1-c1ccco1 | inactive: 16% |
| Cc1ccc(NC(=O)C2=C(c3ccccc3)S(=O)(=O)CCS2(=O)=O)cc1 | inactive: 5.26% |
| Cc1cc2cc(CN(CC3CCCO3)C(=O)c3cnccn3)c(=O)[nH]c2cc1C (configuration not stated) | inactive: 7% |
| Cc1ccc2c(c1)N(CC(=O)NC1CCCC1)C(=O)CO2 | inactive: 5.67% |
| CCn1c(C)nc2cc(C(=O)NNC(=S)Nc3ccccc3)ccc21 | inactive: -3.69% |
| NC(=O)C1CCN(C(=O)c2cc(-c3ccccc3Cl)nc3ccccc23)CC1 | inactive: 19.1% |
| COc1cc2c(cc1OC)-c1cc(N3CCc4ccccc43)nc(=O)n1CC2 | inactive: -14.8% |
| Cc1ccc(N(CC(=O)NC2CCCC2)C(=O)c2ccc(C)s2)cc1 | inactive: 18.5% |
| Cc1cccc(C(=O)NNS(=O)(=O)c2ccc(F)cc2)c1 | inactive: -14.8% |
| O=c1cnnc(Nc2cccc(F)c2)[nH]1 | inactive: -8.14% |
| COc1ccc(CNC(=O)C2CCN(C(=O)N3CCOc4ccc(C)cc43)CC2)cc1 | inactive: -4.5% |
| COc1cccc(CCNc2ccc(N3C(=O)CC(C)C3=O)cc2[N+](=O)[O-])c1 (configuration not stated) | inactive: 7.27% |
| CCCc1cc(=O)[nH]c(SCC(=O)N2CCN(S(=O)(=O)c3ccc4ccccc4c3)CC2)n1 | inactive: 5.92% |
| COC(=O)c1ccccc1NC(=O)CSc1ncn[nH]1 | inactive: 7.49% |
| CCOC(=O)c1sc(NC(=O)CCN2C(=O)c3ccccc3C2=O)c(C(=O)OCC)c1C | inactive: 2.54% |
| O=C(O)c1cc2c(cc1NC(=O)c1ccccc1OC(F)F)OCCCO2 | inactive: 4.3% |
| Cc1cc(NS(=O)(=O)c2ccc(NC(=O)C(C)Oc3cccc(C)c3C)cc2)nc(C)n1 (configuration not stated) | inactive: 21% |
| COc1ccccc1N1CCN(c2c3c(nc4nncn24)CCC3)CC1 | inactive: -2.85% |
| CC1(C)C(=O)Nc2ccccc2N1C(=O)CN1C(=O)C(=O)N(C2CCCC2)C1=O | inactive: 1.44% |
| CN(C)CCC(=O)N1c2ccccc2Sc2ccc(Cl)cc21 | inactive: 9.56% |
| CC(C)(C)C1=C(C#N)C(c2cc3c(cc2Br)OCO3)C(C#N)=C(N)O1 (configuration not stated) | inactive: 3.57% |

| SMILES | growth rescue (activation) |
| --- | --- |
| NC(=O)c1ccsc1NC(=O)COC(=O)[C@@H]1CCCN1C(=O)c1cccs1 | inactive: 11.1% |
| CC(CC(=O)N1CCN(c2ccccc2F)CC1)c1ccccc1 (configuration not stated) | inactive: 10.6% |
| Cc1cccc(-n2nnnc2SCC(=O)NC2CCCC2)c1 | inactive: 5.01% |
| Cc1ccc(/C=C/C(=O)OCC(=O)c2ccc3c(c2)NC(=O)CO3)o1 | inactive: 10.2% |
| Cc1nnc(SCc2nc3sc(C(=O)O)c(C)c3c(=O)[nH]2)s1 | inactive: -2.55% |
| CCCOC(=O)c1c(NC(=O)CCC(=O)O)sc2c1CCCCC2 | inactive: 11.7% |
| CC(C)Cc1nnc(NC(=O)c2cc(-c3ccncc3)nc3ccccc23)s1 | inactive: -2.55% |
| CCCC(=O)Nc1ccc(Cl)c(NC(=S)NC(=O)c2ccco2)c1 | inactive: 15.7% |
| Cc1ccc(/C=N/N2CCN(C3c4ccccc4-c4ccccc43)CC2)s1 | inactive: -0.512% |
| CCn1c(SCC(=O)NC2CCCCC2)nnc1-c1ccccc1F | inactive: -3.89% |
| OC(c1ccc(F)cc1)c1nc(-c2cncnc2)cs1 (configuration not stated) | inactive: 11.8% |
| COc1ccc(-c2nnn(CC(=O)N(Cc3ccco3)C(C(=O)NCC3CCCO3)c3ccco3)n2)cc1 (configuration not stated) | inactive: -16.6% |
| CCn1c(CNC(=O)c2ccco2)nnc1SCC(=O)c1ccc(F)cc1 | inactive: -0.316% |
| O=C(CN1CCN(S(=O)(=O)c2ccccc2F)CC1)Nc1ccccc1C(=O)c1ccccc1 | inactive: 15.3% |
| O=C(COC(=O)/C=C/c1ccccc1[N+](=O)[O-])Nc1ccc(OCc2ccccc2)cc1 | inactive: 4.59% |
| O=C(O)CN1C(=O)/C(=C\c2cc([N+](=O)[O-])ccc2OCc2ccccc2Cl)SC1=S | inactive: -0.786% |
| O=C(N/N=C/c1ccc[nH]1)c1ccc([N+](=O)[O-])cc1 | inactive: -9.77% |
| Cc1ccc(C(O)c2ncc(-c3cccc(C(F)(F)F)c3)[nH]2)cc1F (configuration not stated) | inactive: 4.96% |
| CC1(C)Oc2ccc(C(=O)N/N=C/c3ccc(O)cc3)cc2NC1=O | inactive: 1.97% |
| Cc1ccc(NP(=O)(c2ccc(N(C)C)cc2NC(=O)c2cccs2)N2CCOCC2)cc1 (configuration not stated) | inactive: 2.12% |
| Cc1ccc(S(=O)(=O)NCCCNc2ccc([N+](=O)[O-])cc2)cc1 | inactive: 12.3% |
| COc1ccc(OC)c(Nc2nc(NCCO)c3ccccc3n2)c1 | inactive: 18.1% |
| CCOC(=O)CN(C(=O)CNC(=O)c1ccco1)C(C(=O)NC1CCCCC1)c1cccnc1 (configuration not stated) | inactive: 10.6% |
| Cc1cccc(C(=O)NCCNC(=O)c2ccco2)c1 | inactive: -35.9% |
| Cc1ccc(C(=O)NCCNS(=O)(=O)c2ccccc2)cn1 | inactive: 0.749% |
| CCOC(=O)C1(Cc2cccc(OC)c2)CCN(C(C)CC(C)(C)O)CC1 (configuration not stated) | inactive: 12% |
